Data taken from US11898187B2 (priority 2017, dated 2024).

How the values were obtained:
Assay type in all cases: biochemical
Conditions in all cases: 4-mer peptides, fraction modified (0-1)
[1] = system: N-glycosyltransferase from Mannheimia haemolytica
[2] = system: N-glycosyltransferase from Haemophilus dureyi
[3] = system: N-glycosyltransferase from Escherichia coli
[4] = system: N-glycosyltransferase from Haemophilus influenza

Substance | MO[…] [1] | MO[…] [2] | MO[…] [3] | MO[…] [4]
ANIS | 0.5077 | 0.2419 | 0.4917 | 0.2079
ANVS | 0.6726 | 0.5667 | 0.5643 | 0.3783
ANVT | 0.9587 | 0.9007 | 0.351 | 0.5896
ANYT | 0.9647 | 0.5683 |  | 0.2511
GNVT | 0.8433 | 0.3804 | 0.2697 | 0.05877
GNWT | 0.8825 | 0.623 |  | 0.1263
HNAT | 0.6883 | 0.1623 |  | 0.1576
LNAT | 0.4721 | 0.09237 | 0.1873 | 0.06063
LNVT | 0.5358 | 0.1199 | 0.3079 | 0.06907
MNAT | 0.7069 | 0.1035 |  | 0.05085
MNIT | 0.7649 | 0.1797 | 0.215 | 0.4326
MNVT | 0.7306 | 0.2148 |  | 0.2572
NNAT | 0.8179 | 0.6019 |  | 0.3811
NNHT | 0.7199 | 0.4136 |  | 0.1401
NNRT | 0.8101 | 0.2318 |  | 0.1068
PNAT | 0.8652 | 0.7506 | 0.1833 | 0.6033
PNFT | 0.8586 | 0.5144 | 0.5073 | 0.4645
PNIS | 0.5307 | 0.4261 | 0.6688 | 0.3922
PNIT | 0.8687 | 0.8196 | 0.6028 | 0.8725
PNLT | 0.8239 | 0.5339 | 0.3175 | 0.591
PNMT | 0.8798 | 0.6581 | 0.4526 | 0.719
PNQT | 0.5452 | 0.08606 |  | 0.06199

Substance | MO[…] [1] | MO[…] [2] | MO[…] [3] | MO[…] [4]
PNRT | 0.8381 | 0.4726 | 0.2163 | 0.4212
PNST | 0.8397 | 0.6225 |  | 0.226
PNTT | 0.8305 | 0.6623 |  | 0.2798
PNVS | 0.6243 | 0.4575 | 0.5449 | 0.4427
PNVT | 0.92 | 0.8885 | 0.4415 | 0.7954
PNYT | 0.8592 | 0.6056 | 0.5173 | 0.4332
SNAT | 0.8503 | 0.4858 |  | 0.1214
SNHT | 0.8335 | 0.5732 |  | 0.1343
SNIT | 0.7534 | 0.4091 | 0.2341 | 0.07936
SNVS | 0.7537 | 0.3342 | 0.5194 | 0.1263
SNVT | 0.9307 | 0.7806 | 0.2133 | 0.3833
SNYT | 0.6871 | 0.1522 |  | 0.07481
TNAT | 0.7335 | 0.3044 |  | 0.06444
TNHT | 0.7398 | 0.4918 |  | 0.1278
TNIT | 0.461 | 0.198 | 0.2587 | 0.04805
TNVT | 0.8351 | 0.5375 | 0.1564 | 0.1906
VNAT | 0.6726 | 0.3047 | 0.1646 | 0.1173
VNIT | 0.5212 | 0.2427 | 0.3983 | 0.2424
VNMT | 0.644 | 0.2046 | 0.3718 | 0.3733
VNVT | 0.7102 | 0.3151 | 0.3003 | 0.161
WNAT | 0.8785 | 0.3664 |  | 0.2216
WNHT | 0.8106 | 0.3986 |  | 0.1403
